# Experimental data published in ChEMBL document CHEMBL4888484, “Replenishing the malaria drug discovery pipeline: Screening and hit evaluation of the MMV Hit Generation Library 1 (HGL1) against asexual blood stage Plasmodium falciparum ,using a nano luciferase reporter read-out” (2022).
# Out of some 150,000 compounds screened, about 540 (0.36%) showed an effect of 50% or more. Some of the results follow.
# Test system: Plasmodium falciparum
# Experiment: Primary screen in NF54 nanoGlo assay, in single point, at 2uM, 72h; a lower Z score goes with more inhibition
# Type: functional, Erythrocyte
# Conditions: timepoint 72 hour
Structure (SMILES),% Inhibition,Z score
Cc1ccc(NC(=O)c2cc(N3CCCC3)ncn2)cc1F,-13%,2.28
COc1ccc(-c2cc(C(=O)N(C)C3CCS(=O)(=O)CC3)[nH]n2)cc1,-12%,2.18
CC1CCC(NCc2ccc3c(=O)cc[nH]c3c2)C(C)C1 (stereo unspecified),-5%,0.69
CCOc1cc(N2CCC[C@H](n3cc(CO)nn3)C2)nc(C)n1,0%,-0.01
Cc1cc(C)cc(OCc2nc(CN(CCN3CCOCC3)C(=O)C3CCCC3)cs2)c1,-9%,1.31
Cc1nc(CNC(=O)NCC2(OCCO)CCOCC2)sc1C,-16%,2.02
C=C(C)CNC(=O)c1coc(CN2CCN(c3ncccn3)CC2)n1,14%,-1.87
O=C(Nc1ccc(-n2cc(Cl)cn2)cc1)c1ccc(COc2ccc(F)cc2)cc1,5%,-0.67
CNC(=O)C1CCN(Cc2ccnc(OC)c2F)CC1,-6%,1.18
COCCn1c(=O)n([C@H]2CCCN(C(=O)c3ccccc3OC)C2)c2ncccc21,-9%,1.14
CC(C)Cc1ccc([C@H](C)C(=O)N2CCC(O)(C(N)=O)C2)cc1 (stereo partly specified),-21%,3.55
Nc1nc(CNS(=O)(=O)N2CCCC2)cs1,-17%,1.57
COc1ccc(CCC(=O)N(CCN2CCCC[C@@H]2C)CCS(=O)(=O)N2CCNCC2)cc1,3%,-0.36
Cc1cc(Cn2cc(C(F)(F)F)ccc2=O)on1,-4%,0.51
O=C(Nc1nccc2cc(Br)ccc12)C1CC12CCOC2 (stereo unspecified),-5%,0.94
Cc1ccc(CNC(=O)[C@H]2CCN(c3cnn(Cc4ccccc4)c(=O)c3)C2)o1,-3%,0.39
C=CCOc1ccc(CN(C[C@H]2CCCO2)C(=O)c2ccc(C)o2)cc1OC,-8%,0.79
COc1ccc(CN2C(=O)c3ccccc3[C@H]2c2c(-c3cccc(OC)c3)n(C)c3ccccc23)cc1,-1%,0.12
Cc1nn(C2CCS(=O)(=O)C2)c2c1C(c1cccc(Cl)c1)CC(=O)N2 (stereo unspecified),34%,-3.81
C[C@H]1CCCCN1CC(=O)Nc1sc2c(c1C#N)CCCCC2,-18%,3.45
CN(C)C(=O)N1CCC(Nc2ccc3nc(N(C)C)oc3c2)CC1,6%,-1.01
CC1CCCCC1NC(=O)C1COCC(=O)N1Cc1cccs1 (stereo unspecified),-7%,1.28

Structure (SMILES),% Inhibition,Z score
CC(C)(C)OC(=O)N1CC[C@H](NC(=O)Cc2cnn(-c3ccccc3)c2)C(C)(C)C1,-5%,0.5
CN(C)c1nc2cc(NC(=O)N3CCN4CCC3C4)ccc2o1 (stereo unspecified),-11%,1.36
CCOC(=O)c1cc(-c2ccc(CC)cc2)n(C2CCN(C(=O)COC)CC2)n1,-3%,0.35
c1cc2c3c(c1)C(NC1CCOCC1)CC3CCC2 (stereo unspecified),-2%,0.28
O=C([C@@H]1NCc2ncncc21)N1CCc2c(F)cccc2C1,-1%,0.1
O=C(c1ccco1)N1CCC2(CCN(CCOCc3ccccc3)CC2)CC1,-6%,1.28
COCC(=O)N(Cc1cccc(F)c1)c1ccc(CC(=O)NCCN2CCOCC2)cc1,-8%,1.45
Cn1nccc1[C@@H]1CN(Cc2noc3c2CC(C)(C)CC3)CCO1,6%,-0.92
O=C(Nc1ccc([C@H]2OCC(=O)N(Cc3cccnc3)[C@@H]2CO)cc1)C1CCC1,32%,-3.58
O=C(O)c1cnn(-c2ncc3c(n2)-c2ccccc2CCC3)c1C1CC1,-14%,2.34
Cc1onc(N)c1S(=O)(=O)NC1CCC(C(F)(F)F)CC1 (stereo unspecified),30%,-3.37
COc1cccc(-c2nnc(-c3sc4ccccc4c3Cl)o2)c1,-6%,0.99
C=CCN1CC[C@H](N(C)C(=O)Nc2ccc(C3CCC3)cc2)C1=O,-5%,0.65
CC1(C)C(NC(=O)c2ccco2)C(C)(C)C1NC(=O)c1ccco1 (stereo unspecified),-1%,0.09
CCc1nccn1CC(=O)c1cccc(Cl)c1Cl,-1%,0.09
Cn1cnn(CC(=O)N2CCCCC2)c1=O,-4%,0.42
CC(C)CC(C)OCCC(=O)N1CCOCC1C#N (stereo unspecified),-7%,1.04
CN1CCO[C@@H](CNCCc2ccccc2Cl)C1,5%,-0.73
CCC(=O)N1CCN(C(=O)NC2CCC(CC)(CC)CC2)CC1,-8%,0.9
Cn1cnnc1C[C@H]1CCCN(C(=O)NC2CCCCC2)C1,-7%,0.96
O=C(NC1CCCC1)c1cc2n(n1)CCCN(Cc1ccc(Cl)cc1)C2=O,-14%,2.59
